The entries are a selection whose mix differs from that of the whole data set. The list includes weakly bound sequences.

In the assay the target is T1, GST-Co-NF-kB (UniProt F1ARL5).
T1 sequence: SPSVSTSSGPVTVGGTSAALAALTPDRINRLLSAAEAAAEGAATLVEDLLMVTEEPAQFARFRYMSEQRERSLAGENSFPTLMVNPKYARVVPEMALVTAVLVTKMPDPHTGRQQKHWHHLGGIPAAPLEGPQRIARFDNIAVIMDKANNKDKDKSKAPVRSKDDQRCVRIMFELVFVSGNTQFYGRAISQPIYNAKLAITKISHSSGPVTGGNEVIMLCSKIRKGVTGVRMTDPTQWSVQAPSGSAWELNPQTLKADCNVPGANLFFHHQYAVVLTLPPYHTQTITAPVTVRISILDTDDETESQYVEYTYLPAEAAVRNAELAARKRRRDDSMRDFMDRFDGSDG
Briefly: protein-binding microarray (PBM). The following applies: PBM: ~300 nM protein, 6 mM HEPES pH 7.8, 80 mM KCl, 0.5 mM EDTA, 0.5 mM EGTA, 6% glycerol, 35 ng/ul poly-dIdC, 1% milk, 1 h, room temperature; Ap Aiptasia and Nv Nematostella (sea anemones) / Co Capsaspora / Aq Amphimedon (sponge) / Dm Drosophila / Hu human; RHD is the Rel homology domain; high values mean tight binding; most listed sequences are background and not binding sites; double strand, one strand shown.
For “CCGATTAACATCAAGTGGGAAAATGATGTTAATCGGGTCTTGATTCGCTTGACGCTGCTG”, the binding signal amounted to 2.91 z-score.

For “CCGATTAACATCACAACTTTCCCTGATGTTAATCGGGTCTTGATTCGCTTGACGCTGCTG”, the binding signal is 4.34 z-score. Turning to “CCGATTAACATCAGGGACCTCCCTGATGTTAATCGGGTCTTGATTCGCTTGACGCTGCTG”, the binding signal worked out at 0.648 z-score. In the case of “CCGATTAACATCAAAAAACCCCTTGATGTTAATCGGGTCTTGATTCGCTTGACGCTGCTG” it was 2.05 z-score.

“CCGATTAACATCATATTTTCCCATGATGTTAATCGGGTCTTGATTCGCTTGACGCTGCTG” came in with a binding signal of 4.34 z-score. “CCGATTAACATCAGAAATCTCCCTGATGTTAATCGGGTCTTGATTCGCTTGACGCTGCTG”: the binding signal stood at 2.43 z-score.

“CCGATTAACATCAGGGGTCAGTATGATGTTAATCGGGTCTTGATTCGCTTGACGCTGCTG” registered a binding signal of 0.945 z-score. “CCGATTAACATCAGGGGATGCACTGATGTTAATCGGGTCTTGATTCGCTTGACGCTGCTG” registered a binding signal of 2.97 z-score. In the case of “CCGATTAACATCAGATATCCCCCTGATGTTAATCGGGTCTTGATTCGCTTGACGCTGCTG” it was 6.39 z-score; in that of “CCGATTAACATCAGGAGAATCCCTGATGTTAATCGGGTCTTGATTCGCTTGACGCTGCTG”, 0.187 z-score. The sequence “CCGATTAACATCAGGCAGTTCCCTGATGTTAATCGGGTCTTGATTCGCTTGACGCTGCTG” gave a binding signal of 0.766 z-score.

“CCGATTAACATCAGGACACCCCATGATGTTAATCGGGTCTTGATTCGCTTGACGCTGCTG” returned a binding signal of 1.49 z-score. For “CCGATTAACATCATGGGAAGGTTTGATGTTAATCGGGTCTTGATTCGCTTGACGCTGCTG”, the binding signal stood at 2.28 z-score. In the case of “CCGATTAACATCAGGCGAACCCCTGATGTTAATCGGGTCTTGATTCGCTTGACGCTGCTG” it was -0.504 z-score; in that of “CCGATTAACATCAATGGGTTTTCTGATGTTAATCGGGTCTTGATTCGCTTGACGCTGCTG”, 0.972 z-score.

On to “CCGATTAACATCACGGAAATACCTGATGTTAATCGGGTCTTGATTCGCTTGACGCTGCTG”, for which the binding signal turned out to be 0.0538 z-score. Regarding “CCGATTAACATCAGGGGATAATATGATGTTAATCGGGTCTTGATTCGCTTGACGCTGCTG”, the binding signal is 5.65 z-score. In turn, “CCGATTAACATCAATAACCCCCATGATGTTAATCGGGTCTTGATTCGCTTGACGCTGCTG” registered a binding signal of 2.27 z-score. “CCGATTAACATCACCCCAAACGCTGATGTTAATCGGGTCTTGATTCGCTTGACGCTGCTG” registered a binding signal of 1.79 z-score. Sequence “CCGATTAACATCAGGAACCCCCATGATGTTAATCGGGTCTTGATTCGCTTGACGCTGCTG” registered a binding signal of 2.67 z-score. For “CCGATTAACATCACAACCCCCCCTGATGTTAATCGGGTCTTGATTCGCTTGACGCTGCTG”, the binding signal worked out at 3.83 z-score.

For “CCGATTAACATCAGGAGGTTCCCTGATGTTAATCGGGTCTTGATTCGCTTGACGCTGCTG”, the binding signal is 0.78 z-score. In the case of “CCGATTAACATCAGGGGTAGAACTGATGTTAATCGGGTCTTGATTCGCTTGACGCTGCTG” it was 5.07 z-score. For “CCGATTAACATCAAGGGCTTTCCTGATGTTAATCGGGTCTTGATTCGCTTGACGCTGCTG”, the binding signal came to 0.0543 z-score. As for “CCGATTAACATCAGGGGTGCCCATGATGTTAATCGGGTCTTGATTCGCTTGACGCTGCTG”, the binding signal was found to be 0.921 z-score.

Take “CCGATTAACATCAGGGAAGTCCATGATGTTAATCGGGTCTTGATTCGCTTGACGCTGCTG”: the binding signal was determined as 1.08 z-score. Turning to “CCGATTAACATCAGGGGGAGAGATGATGTTAATCGGGTCTTGATTCGCTTGACGCTGCTG”, the binding signal turned out to be 5.69 z-score. As for “CCGATTAACATCAGGGGATCCCATGATGTTAATCGGGTCTTGATTCGCTTGACGCTGCTG”, the binding signal came to 2.81 z-score.

As for “CCGATTAACATCAGGGGGTTTCATGATGTTAATCGGGTCTTGATTCGCTTGACGCTGCTG”, the binding signal was 2.56 z-score. In the case of “CCGATTAACATCACTTTTTTCCCTGATGTTAATCGGGTCTTGATTCGCTTGACGCTGCTG” it was 6.08 z-score. In the case of “CCGATTAACATCAGTCCCGCACTTGATGTTAATCGGGTCTTGATTCGCTTGACGCTGCTG” it was 0.933 z-score; in that of “CCGATTAACATCAGGGCCCCCCCTGATGTTAATCGGGTCTTGATTCGCTTGACGCTGCTG”, 2.89 z-score; in that of “CCGATTAACATCAGGAACGCCCCTGATGTTAATCGGGTCTTGATTCGCTTGACGCTGCTG”, 0.44 z-score. In the case of “CCGATTAACATCAAGGGGGAGATTGATGTTAATCGGGTCTTGATTCGCTTGACGCTGCTG” it was 7.21 z-score.

Turning to “CCGATTAACATCAAAAGCCCCCATGATGTTAATCGGGTCTTGATTCGCTTGACGCTGCTG”, the binding signal stood at 2.08 z-score. In the case of “CCGATTAACATCAGAAATTTACCTGATGTTAATCGGGTCTTGATTCGCTTGACGCTGCTG”, the binding signal came out at 0.327 z-score.

In turn, “CCGATTAACATCAAGGGAACCCCTGATGTTAATCGGGTCTTGATTCGCTTGACGCTGCTG” gave a binding signal of 0.931 z-score. In the case of “CCGATTAACATCAGATATTTCCCTGATGTTAATCGGGTCTTGATTCGCTTGACGCTGCTG”, the binding signal turned out to be 5.03 z-score. With “CCGATTAACATCAGGGGAGTGGATGATGTTAATCGGGTCTTGATTCGCTTGACGCTGCTG”, the binding signal was 1.84 z-score.

These data come from PMC5700166.
